Test results: publication PMC11614109, “Revisiting sodium phosphotungstate and ammonium molybdate as nonradioactive negative-staining agents for single-particle analysis” (Acta Crystallographica Section F: Structural Biology …, 2024)

Target: the molecule itself
Assay: negative-stain EM, single-particle analysis (2D classes and 3D reconstruction); purified β-galactosidase at 2.1 mg mL^-1 on continuous carbon grids, stained with UF, or with SPT or AMo after on-grid fixation with 0.15% glutaraldehyde; 3D classification in C1, refinement with D2 symmetry, maps filtered to 10 Å

B1: E. coli β-galactosidase (enzyme)
chain: not shown
notes: β-galactosidase of E. coli, bought as lyophilized protein; the atomic model PDB 6x1q was rigid-body fitted into the maps; On grids for AMo or SPT staining the protein was fixed with 0.15% glutaraldehyde; not for UF staining; source: bought: Sigma–Aldrich (catalogue No. G5635-3KU), lyophilized protein; further purified by size-exclusion chromatography (Superdex 200 Increase 10/300 GL)
- stoichiometry N: 4
